# Earlier results, collected in publication PMC4976356, “Structural insight into β-Clamp and its interaction with DNA Ligase in Helicobacter pylori” (Scientific Reports, 2016).
# System: Ecβ-clamp
substance,measurement,value
"MutL: MutL, binds to β-clamp in E. coli",interaction with E. coli β-clamp (in words),will also bind to β-clamp in E. coli
